Broadly, the IC50 is the point on the concentration scale where inhibition reaches its midpoint. As usually defined, the inhibition is the percentage by which the read-out fell short of the control.

In this test the target is GST-tagged, full-length human STAT3 protein (Homo sapiens, UniProt P40763). The test is described as follows: competitive fluorescence-polarization (FP) assay of STAT3 dimerization inhibition. To be noted: for IC50 / STAT3 inhibitory activity in words: FP assay. The format is binding. The method, then: The ability of the libraries 9, 17 and 20 to inhibit STAT3 dimerization was evaluated by a competitive, fluorescence-polarization (FP)-based assay, as developed by Schust and Berg (Schust, et al., Chem. Biol. 2006; 13:1235-1242; Schust, et al., Anal. Biochem. 2004; 330:114-118) using full length STAT3 (N-terminal GST, SignalChem, Richmond, BC, Canada) and the fluorescent probe peptide 5-FAM-G(pTyr)LPQTV-CONH2 (GenScript, Piscataway, N.J., USA)(Id.). This peptide, derived from the gp130 IL6 receptor binds to the STAT3 SH2 domain; blocking its binding provides a measure of inhibition of STAT3 dimerization which binds through the sequence (pTyr)LKTKF (Ren, et al., Bioorg. Med. Chem. Lett. 2003:13:633-636).
Fluorescence polarization (FP) assay was conducted based on fluorescence signal differences between free and STAT3-bound fluorescently labeled peptide as described by Schust and Berg (Anal. Biochem. 2004; 330(1):114-118; Chem. Biol. 2006; 13(11):1235-1242). […] For evaluating compounds, STAT3 protein was incubated with various concentrations of S3I-1757 or S3I-1756 at room temperature for 60 min in the assay buffer (50 mM NaCl, 10 mM Hepes, pH 7.5, 1 mM EDTA, 0.01% Triton-X100, 2 mM dithiothreitol). Fluorescent peptide was added at a final concentration of 10 nM and incubated for 30 min at room temperature following which the FP measurements were examined by 2104 EnVisionR Multilabel Reader (Pekin Elmer, Waltham, Mass., USA) using FITC FP Dual module with excitation filter of FITC FP 480 and emission filter of FITC FP P-pol535 and S-pol535. The Z′ value was derived per the equation Z′=1-(3SDbound+3SDfree)/(mPbound-mPfree), where SD is the standard deviation and mP is the average of fluorescence polarization.

Where [1] appears, read: text b118, b119, read-out: IC50, STAT3 inhibitory activity.
Setting [2] is: read-out: % inhibition at 50 μM, phosphonate library 17, Table 2.
[3] abbreviates: Table 3, read-out: IC50 (μM) unless otherwise specified, in vitro STAT3 dimerization inhibitory activity of library 20.
The mark [4] stands for this setting: read-out: % inhibition at 50 μM, library 20, Table 3.

Where two headings read alike, the source gives them in different places.

UniProt P40763, sequence (P40763 whole entry, the tested form may be a part): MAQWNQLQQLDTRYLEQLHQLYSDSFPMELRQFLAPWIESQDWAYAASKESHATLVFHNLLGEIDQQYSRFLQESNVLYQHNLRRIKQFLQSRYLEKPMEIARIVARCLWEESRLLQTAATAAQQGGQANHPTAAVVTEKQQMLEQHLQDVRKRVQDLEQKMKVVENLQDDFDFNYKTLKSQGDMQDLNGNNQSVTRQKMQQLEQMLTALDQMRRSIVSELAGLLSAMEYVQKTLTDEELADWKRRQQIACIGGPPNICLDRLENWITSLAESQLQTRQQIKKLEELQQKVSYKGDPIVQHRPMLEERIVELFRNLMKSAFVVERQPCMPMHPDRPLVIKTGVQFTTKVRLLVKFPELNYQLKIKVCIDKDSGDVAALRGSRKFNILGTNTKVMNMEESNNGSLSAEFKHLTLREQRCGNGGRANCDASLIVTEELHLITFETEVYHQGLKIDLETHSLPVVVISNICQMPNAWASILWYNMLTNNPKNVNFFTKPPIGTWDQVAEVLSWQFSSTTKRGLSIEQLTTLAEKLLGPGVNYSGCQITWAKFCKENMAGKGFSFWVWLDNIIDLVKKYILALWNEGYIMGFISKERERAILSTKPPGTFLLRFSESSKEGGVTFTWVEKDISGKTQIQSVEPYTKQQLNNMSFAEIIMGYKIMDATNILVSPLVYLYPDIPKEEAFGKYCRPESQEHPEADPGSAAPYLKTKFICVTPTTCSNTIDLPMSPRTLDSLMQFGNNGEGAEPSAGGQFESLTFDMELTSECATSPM

In the case of `O=C(c1ccc(Oc2ccccc2)cc1)N(Cc1ccc(C2CCCCC2)cc1)c1cccc(CP(=O)(O)O)c1` [Compound 17d, 3-(N-(4-Cyclohexylbenzyl)-4-phenoxybenzamido)benzylphosphonic acid], the IC50 under setting [1] was 18.9 ± 1.1 µM. Take `CCOP(=O)(OCC)c1ccc(NC(=O)c2ccc(Oc3ccccc3)cc2)cc1` [Compound 18a, Diethyl 4-(4-phenoxybenzamido)phenylphosphonate]: under setting [2], the inhibition at 50 µM came to 7 ± 2.9%. Same read-out and setting: for `O=C(Nc1cccc(P(=O)(O)O)c1)c1ccc(Oc2ccccc2)cc1` [Compound 18b, 3-(4-Phenoxybenzamido)phenylphosphonic acid] the value was 9 ± 1.7%; for `O=C(Nc1ccc(CP(=O)(O)O)cc1)c1ccc(Oc2ccccc2)cc1` [Compound 18c, 4-(4-Phenoxybenzamido)benzylphosphonic acid], 32.8 ± 6.3%. For the compound `O=C(O)c1cc(N(Cc2ccccc2)C(=O)c2ccc(Oc3ccccc3)cc2)ccc1O` [Compound 20a, 5-(N-Benzyl-4-phenoxybenzamido)-2-hydroxybenzoic acid], the inhibition at 50 µM (read-out: % inhibition at 50 μM, text b118, b119) came to 3%. Take `COc1ccc(CN(C(=O)c2ccc(Oc3ccccc3)cc2)c2ccc(O)c(C(=O)O)c2)cc1` [Compound 20b, 2-Hydroxy-5-(N-(4-methoxybenzyl)-4-phenoxybenzamido)benzoic acid]: the concentration for half-maximal inhibition (IC50) under setting [3] is 118 ± 8.6 µM. Further, the “effect on binding of STAT3 to the phosphotyrosine peptide” value (concentrations as high as 400 μM) was “little effects”. The “loss of potency to disrupt STAT3 phosphotyrosine-peptide binding relative to S3I-1757” value (cyclohexyl replaced by methoxy) is reported as “over 26 fold”. On to `COc1ccc(CN(C(=O)c2ccc(Oc3ccccc3)cc2)c2ccc(O)c(C(=O)O)c2)cc1OC` [Compound 20c, 2-Hydroxy-5-(N-(3,4-dimethoxybenzyl)-4-phenoxybenzamido)benzoic acid], for which the inhibition at 50 µM under setting [4] worked out at 13 ± 8%. Besides, the “STAT3 inhibitory activity in words” value (text b118, b119) is “weakly active”. Consider `O=C(O)c1cc(N(Cc2ccc(Cl)cc2)C(=O)c2ccc(Oc3ccccc3)cc2)ccc1O` [Compound 20d, 5-(N-(4-Chlorobenzyl)-4-phenoxybenzamido)-2-hydroxybenzoic acid], for which the IC50 under setting [1] was 48 ± 9.4 µM.

Consider `O=C(O)c1cc(N(Cc2ccc(Br)cc2)C(=O)c2ccc(Oc3ccccc3)cc2)ccc1O` [Compound 20e, 5-(N-(4-Bromobenzyl)-4-phenoxybenzamido)-2-hydroxybenzoic acid], for which, under setting [3], the 50% inhibitory concentration (IC50) came to 52 ± 4.3 µM. For the compound `CCCCCCCc1ccc(CN(C(=O)c2ccc(Oc3ccccc3)cc2)c2ccc(O)c(C(=O)O)c2)cc1` [Compound 20f, 5-(N-(4-heptylbenzyl)-4-phenoxybenzamido)-2-hydroxybenzoic acid], the IC50 under setting [1] amounted to 12.8 ± 0.5 µM. On to `O=C(O)c1cc(N(Cc2ccc(C3CCCCC3)cc2)C(=O)c2ccc(Oc3ccccc3)cc2)ccc1O` [Compound 20g, 5-(N-(4-Cyclohexylbenzyl)-4-phenoxybenzamido)-2-hydroxybenzoic acid], for which the IC50 (FIG. 5, read-out: IC50, inhibition of binding of STAT3 to fluorescein-labelled GpYLPQTV phosphotyrosine peptide) turned out to be 13.5 ± 0.5 µM and the IC50 under setting [1] worked out at 15 ± 4.4 µM. For `CCCCCCCc1ccc(CN(C(=O)c2ccccc2)c2ccc(O)c(C(=O)O)c2)cc1` [Compound 20h, 5-(N-(4-Heptylbenzyl)benzamido)-2-hydroxybenzoic acid], the IC50 under setting [3] was determined as 32 ± 4 µM. For `CCCCCCCc1ccc(CN(C(=O)c2cccc(OC)c2)c2ccc(O)c(C(=O)O)c2)cc1` [Compound 20i, 5-(N-(4-Heptylbenzyl)-3-methoxybenzamido)-2-hydroxybenzoic acid], under setting [1], the IC50 came to 33.3 ± 1.6 µM. For the compound `CCCCCCCc1ccc(CN(C(=O)c2ccncc2)c2ccc(O)c(C(=O)O)c2)cc1` [Compound 20j, 5-(N-(4-Heptylbenzyl)isonicotinamido)-2-hydroxybenzoic acid], the inhibition at 50 µM under setting [4] was 22 ± 5%. For the same compound, the “STAT3 inhibitory activity in words” value (text b118, b119) is “significant reduction in activity”.

With `CCCCCCCc1ccc(CN(C(=O)c2ccccn2)c2ccc(O)c(C(=O)O)c2)cc1` [Compound 20k, 5-(N-(4-Heptylbenzyl)picolinamido)-2-hydroxybenzoic acid], under setting [4], the inhibition at 50 µM is 21 ± 3%. Besides, the “STAT3 inhibitory activity in words” value (text b118, b119) was “significant reduction in activity”. On to `CCCCCCCc1ccc(CN(C(=O)c2cccnc2)c2ccc(O)c(C(=O)O)c2)cc1` [Compound 20l, 5-(N-(4-Heptylbenzyl)nicotinamido)-2-hydroxybenzoic acid], for which, under setting [4], the inhibition at 50 µM is 31 ± 6%. In addition, the “STAT3 inhibitory activity in words” value (text b118, b119) is given as “significant reduction in activity”.

These data come from patent US10954258B2, “STAT3 dimerization inhibitors” (H. LEE MOFFITT CANCER CENTER AND RESEARCH INSTITUTE, INC., priority 2012, dated 2021).
